{"source": "the supplement of paper PMC8728848", "binders": {"B1": {"name": "SLR2P2A3 (Tachypleus tridentatus), TAL2_TACTR (protein)", "chain": "MEKGTPPTHDSDNWMGRAKKIGNGGWNQFQFLFFDPNGYLYAVSKDKLYKASPPQSDTDNWIARATEIGSGGWSGSKFLFFHPNGYLYAVHGQRLYKALPPVSNQD"}}, "assay_in_all_cases": "glycan array binding signal (z-score within array); higher = stronger binding", "conditions_in_all_cases": "glycan notation: IUPAC condensed, linker removed", "key": {"[1]": {"target": "Fuc(a1-3)[GalNAc(b1-4)]GlcNAc", "method_in_brief": "(§1)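 Glycan array data were curated from 3228 arrays in the Consortium for Functional Glycomics database and kept only where the protein sequence was available. Glycan names were converted to IUPAC-condensed notation, and columns mapping to the same glycan were averaged. The binding signal is a within-array Z-score, averaged across arrays of the same protein sequence at different concentrations or buffers and across linkers. Negative Z-scores can be read as non-binding.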"}, "[2]": {"target": "Fuc(a1-4)GlcNAc", "method_in_brief": "as §1"}, "[3]": {"target": "Fuc(b1-3)GlcNAc", "method_in_brief": "as §1"}, "[4]": {"target": "Gal(a1-2)Gal", "method_in_brief": "as §1"}, "[5]": {"target": "Gal(a1-3)Gal", "method_in_brief": "as §1"}, "[6]": {"target": "Gal(a1-3)Gal(b1-3)GlcNAc", "method_in_brief": "as §1"}, "[7]": {"target": "Gal(a1-3)Gal(b1-4)Glc", "method_in_brief": "as §1"}, "[8]": {"target": "Gal(a1-3)Gal(b1-4)GlcNAc", "method_in_brief": "as §1"}, "[9]": {"target": "Gal(a1-3)Gal(b1-4)[Fuc(a1-3)]GlcNAc", "method_in_brief": "as §1"}, "[10]": {"target": "Gal(a1-3)GalNAc", "method_in_brief": "as §1"}, "[11]": {"target": "Gal(a1-3)[Gal(a1-4)]Gal(b1-4)GlcNAc", "method_in_brief": "as §1"}, "[12]": {"target": "Gal(a1-4)Gal(b1-4)Glc", "method_in_brief": "as §1"}, "[13]": {"target": "Gal(a1-4)Gal(b1-4)GlcNAc", "method_in_brief": "as §1"}, "[14]": {"target": "Gal(a1-4)GlcNAc", "method_in_brief": "as §1"}, "[15]": {"target": "Gal(a1-6)Glc", "method_in_brief": "as §1"}, "[16]": {"target": "Gal(b1-2)Gal", "method_in_brief": "as §1"}, "[17]": {"target": "Gal(b1-3)Gal", "method_in_brief": "as §1"}, "[18]": {"target": "Gal(b1-3)Gal(b1-4)GlcNAc", "method_in_brief": "as §1"}, "[19]": {"target": "Gal(b1-3)GalNAc", "method_in_brief": "as §1"}, "[20]": {"target": "Gal(b1-3)GalNAc(b1-3)Gal(a1-4)Gal(b1-4)Glc", "method_in_brief": "as §1"}, "[21]": {"target": "Gal(b1-3)GalNAc(b1-4)Gal(b1-4)Glc", "method_in_brief": "as §1"}, "[22]": {"target": "Gal(b1-3)GalNAc(b1-4)[Neu5Ac(a2-3)]Gal(b1-4)Glc", "method_in_brief": "as §1"}, "[23]": {"target": "Gal(b1-3)GlcNAc", "method_in_brief": "as §1"}, "[24]": {"target": "Gal(b1-3)GlcNAc(b1-2)Man(a1-3)[Gal(b1-3)GlcNAc(b1-2)Man(a1-6)]Man(b1-4)GlcNAc(b1-4)GlcNAc", "method_in_brief": "as §1"}, "[25]": {"target": "Gal(b1-3)GlcNAc(b1-3)Gal(b1-3)GlcNAc", "method_in_brief": "as §1"}, "[26]": {"target": "Gal(b1-3)GlcNAc(b1-3)Gal(b1-4)Glc", "method_in_brief": "as §1"}, "[27]": {"target": "Gal(b1-3)GlcNAc(b1-3)Gal(b1-4)GlcNAc", "method_in_brief": "as §1"}, "[28]": {"target": "Gal(b1-3)[Fuc(a1-4)]GlcNAc", "method_in_brief": "as §1"}, "[29]": {"target": "Gal(b1-3)[Fuc(a1-4)]GlcNAc(b1-3)Gal(b1-3)[Fuc(a1-4)]GlcNAc", "method_in_brief": "as §1"}, "[30]": {"target": "Gal(b1-3)[Fuc(a1-4)]GlcNAc(b1-3)Gal(b1-4)GlcNAc", "method_in_brief": "as §1"}, "[31]": {"target": "Gal(b1-3)[Fuc(a1-4)]GlcNAc(b1-3)Gal(b1-4)[Fuc(a1-3)]GlcNAc", "method_in_brief": "as §1"}, "[32]": {"target": "Gal(b1-3)[GlcNAc(b1-6)]GalNAc", "method_in_brief": "as §1"}, "[33]": {"target": "Gal(b1-3)[Neu5Ac(a2-6)]GalNAc", "method_in_brief": "as §1"}, "[34]": {"target": "Gal(b1-3)[Neu5Ac(a2-6)]GlcNAc(b1-6)Gal(b1-4)Glc", "method_in_brief": "as §1"}, "[35]": {"target": "Gal(b1-3)[Neu5Ac(b2-6)]GalNAc", "method_in_brief": "as §1"}, "[36]": {"target": "Gal(b1-4)GalNAc(a1-3)[Fuc(a1-2)]Gal(b1-4)GlcNAc", "method_in_brief": "as §1"}, "[37]": {"target": "Gal(b1-4)GalNAc(b1-3)[Fuc(a1-2)]Gal(b1-4)GlcNAc", "method_in_brief": "as §1"}, "[38]": {"target": "Gal(b1-4)Glc", "method_in_brief": "as §1"}, "[39]": {"target": "Gal(b1-4)Glc6S", "method_in_brief": "as §1"}, "[40]": {"target": "Gal(b1-4)GlcNAc", "method_in_brief": "as §1"}, "[41]": {"target": "Gal(b1-4)GlcNAc(a1-6)Gal(b1-4)GlcNAc", "method_in_brief": "as §1"}, "[42]": {"target": "Gal(b1-4)GlcNAc(b1-2)Man(a1-3)[Gal(b1-4)GlcNAc(b1-2)Man(a1-6)]Man(b1-4)GlcNAc(b1-4)GlcNAc", "method_in_brief": "as §1"}, "[43]": {"target": "Gal(b1-4)GlcNAc(b1-3)Gal(b1-3)GlcNAc", "method_in_brief": "as §1"}, "[44]": {"target": "Gal(b1-4)GlcNAc(b1-3)Gal(b1-4)Glc", "method_in_brief": "as §1"}, "[45]": {"target": "Gal(b1-4)GlcNAc(b1-3)Gal(b1-4)GlcNAc", "method_in_brief": "as §1"}}, "note": "The other results are listed elsewhere or left out.", "data": [{"binder": "B1", "values": [{"measurement": "glycan array binding signal (z-score)", "setting": "[1]", "result": 0.139}, {"measurement": "glycan array binding signal (z-score)", "setting": "[2]", "result": -0.416}, {"measurement": "glycan array binding signal (z-score)", "setting": "[3]", "result": 0.027}, {"measurement": "glycan array binding signal (z-score)", "setting": "[4]", "result": -0.068}, {"measurement": "glycan array binding signal (z-score)", "setting": "[5]", "result": -0.317}, {"measurement": "glycan array binding signal (z-score)", "setting": "[6]", "result": -0.279}, {"measurement": "glycan array binding signal (z-score)", "setting": "[7]", "result": -0.17}, {"measurement": "glycan array binding signal (z-score)", "setting": "[8]", "result": -0.211}, {"measurement": "glycan array binding signal (z-score)", "setting": "[9]", "result": -0.175}, {"measurement": "glycan array binding signal (z-score)", "setting": "[10]", "result": 0.009}, {"measurement": "glycan array binding signal (z-score)", "setting": "[11]", "result": 0.006}, {"measurement": "glycan array binding signal (z-score)", "setting": "[12]", "result": 0.014}, {"measurement": "glycan array binding signal (z-score)", "setting": "[13]", "result": -0.115}, {"measurement": "glycan array binding signal (z-score)", "setting": "[14]", "result": 0.132}, {"measurement": "glycan array binding signal (z-score)", "setting": "[15]", "result": 0.235}, {"measurement": "glycan array binding signal (z-score)", "setting": "[16]", "result": -0.307}, {"measurement": "glycan array binding signal (z-score)", "setting": "[17]", "result": -0.234}, {"measurement": "glycan array binding signal (z-score)", "setting": "[18]", "result": -0.347}, {"measurement": "glycan array binding signal (z-score)", "setting": "[19]", "result": -0.012}, {"measurement": "glycan array binding signal (z-score)", "setting": "[20]", "result": 1.24}, {"measurement": "glycan array binding signal (z-score)", "setting": "[21]", "result": -0.537}, {"measurement": "glycan array binding signal (z-score)", "setting": "[22]", "result": -0.513}, {"measurement": "glycan array binding signal (z-score)", "setting": "[23]", "result": -0.372}, {"measurement": "glycan array binding signal (z-score)", "setting": "[24]", "result": -0.043}, {"measurement": "glycan array binding signal (z-score)", "setting": "[25]", "result": -0.344}, {"measurement": "glycan array binding signal (z-score)", "setting": "[26]", "result": 0.014}, {"measurement": "glycan array binding signal (z-score)", "setting": "[27]", "result": 0.128}, {"measurement": "glycan array binding signal (z-score)", "setting": "[28]", "result": -0.021}, {"measurement": "glycan array binding signal (z-score)", "setting": "[29]", "result": -0.635}, {"measurement": "glycan array binding signal (z-score)", "setting": "[30]", "result": 0.113}, {"measurement": "glycan array binding signal (z-score)", "setting": "[31]", "result": 0.094}, {"measurement": "glycan array binding signal (z-score)", "setting": "[32]", "result": -0.374}, {"measurement": "glycan array binding signal (z-score)", "setting": "[33]", "result": -0.332}, {"measurement": "glycan array binding signal (z-score)", "setting": "[34]", "result": 0.285}, {"measurement": "glycan array binding signal (z-score)", "setting": "[35]", "result": -0.092}, {"measurement": "glycan array binding signal (z-score)", "setting": "[36]", "result": -0.211}, {"measurement": "glycan array binding signal (z-score)", "setting": "[37]", "result": 0.214}, {"measurement": "glycan array binding signal (z-score)", "setting": "[38]", "result": 2.79}, {"measurement": "glycan array binding signal (z-score)", "setting": "[39]", "result": 0.015}, {"measurement": "glycan array binding signal (z-score)", "setting": "[40]", "result": -0.206}, {"measurement": "glycan array binding signal (z-score)", "setting": "[41]", "result": -0.223}, {"measurement": "glycan array binding signal (z-score)", "setting": "[42]", "result": -0.011}, {"measurement": "glycan array binding signal (z-score)", "setting": "[43]", "result": 0.027}, {"measurement": "glycan array binding signal (z-score)", "setting": "[44]", "result": -0.197}, {"measurement": "glycan array binding signal (z-score)", "setting": "[45]", "result": -0.306}]}]}
